Tested on: Human kidney cancer cell line 786-O cells
Assay type: in vivo
Settings: 786-O subcutaneous xenograft, nude mice, ADC (1) 1 mg/kg i.v. on Day 0, belzutifan 0.3 mg/kg orally once daily, five times a week for 3 weeks
Experimental: Mouse: Six-week-old female BALB/c nude mice (The Jackson Laboratory Japan, Inc.) were subjected to an experiment.
Measurement and calculation expression: The long diameter and short diameter of each tumor were measured twice a week using electronic digital calipers (CD-15CX, Mitutoyo Corp.), and the volume of the tumor was then calculated. The following expression was used in the calculation.
The anti-CDH6 antibody-drug conjugate (1) was diluted with ABS buffer (10 mM acetate buffer (pH 5.5), 5% sorbitol), and the dilution was intravenously administered at a dose of 10 mL/kg to the tail of each mouse. Belzutifan was suspended in 10% dimethyl sulfoxide, 40% polyethylene glycol 300, 5% Tween-80, and 45% physiological saline, and the suspension was administered orally at a dose of 10 mL/kg.
Human kidney cancer cell line 786-O cells purchased from ATCC (American Type Culture Collection) were suspended in Matrigel Matrix, and the cell suspension was subcutaneously inoculated at a dose of 4×10^6 cells to the right flank region of each female nude mouse. […]
Tumor growth inhibition (TGI) is calculated according to the following expression.
Change from baseline (%) (percentage change of average tumor volume on Day 21 from an average tumor volume on Day 0 as a baseline) was calculated according to the following expression, and is shown in FIG. 15.

B1: Anti-CDH6 antibody-drug conjugate (1): humanized anti-CDH6 antibody (heavy chain SEQ ID NO: 29, light chain SEQ ID NO: 38) conjugated to the exatecan-derivative drug-linker via thioether bond; DAR 7.9 (conjugate)
heavy: EVQLVQSGAEVKKPGASVKVSCKASGYTFTRNFMHWVRQAPGQGLEWMGWIYPGDGETEYAQKFQGRVTITADTSTSTAYMELSSLRSEDTAVYYCARGVYGGFAGGYFDFWGQGTLVTVSSASTKGPSVFPLAPSSKSTSGGTAALGCLVKDYFPEPVTVSWNSGALTSGVHTFPAVLQSSGLYSLSSVVTVPSSSLGTQTYICNVNHKPSNTKVDKRV[human IgG1 Fc left out]
light: DIQMTQSPSSLSASVGDRVTITCKASQNIYKNLAWYQQKPGKAPKLLIYDANTLQTGVPSRFSGSGSGSDFTLTISSLQPEDFATYFCQQYYSGWAFGQGTKVEIKRTVAAPSVFIFPPSDEQLKSGTASVVCLLNNFYPREAKVQWKVDNALQSGNSQESVTEQDSKDSTYSLSSTLTLSKADYEKHKVYACEVTHQGLSSPVTKSFNRGEC
modifications: exatecan-derivative drug-linker, DAR 7.9; Matured heavy chain amino acid sequence of hH01 heavy chain, without a signal sequence; Matured light chain amino acid sequence of hL02 light chain, without a signal sequence
Tumor growth inhibition (TGI) (Day 21): 43%
Change from baseline (%) (percentage change of average tumor volume on Day 21 from average tumor volume on Day 0) (Day 21 vs Day 0): 25%
